Test results published in PubChem BioAssay AID488969 (Vanderbilt High Throughput Screening Facility, 2010).
Whole data set: some 110,000 compounds, median “z-score” near -0.1, cut for the highest 2% near 2. The list shows a part of the results. Activity calls are given as the source filed them.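 The calls were made as follows: active = z-score in the third read window above 3 or below -3; inactive = the rest.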

Target: Metabotropic glutamate receptor 8 (Rattus norvegicus) (UniProt P70579)
Experiment: rat mGluR8 modulators via GIRK flux, primary screen, cell-based, thallium flux, HTS (AID 488969)
Settings: HEK293 rat mGluR8, GIRK (G protein-gated inwardly rectifying potassium channel) thallium flux, FluoZin2; at 10 µM; stronger effect = higher value; submaximal glutamate (EC20) added with thallium

Sequence of UniProt P70579 (P70579 whole entry, looked up): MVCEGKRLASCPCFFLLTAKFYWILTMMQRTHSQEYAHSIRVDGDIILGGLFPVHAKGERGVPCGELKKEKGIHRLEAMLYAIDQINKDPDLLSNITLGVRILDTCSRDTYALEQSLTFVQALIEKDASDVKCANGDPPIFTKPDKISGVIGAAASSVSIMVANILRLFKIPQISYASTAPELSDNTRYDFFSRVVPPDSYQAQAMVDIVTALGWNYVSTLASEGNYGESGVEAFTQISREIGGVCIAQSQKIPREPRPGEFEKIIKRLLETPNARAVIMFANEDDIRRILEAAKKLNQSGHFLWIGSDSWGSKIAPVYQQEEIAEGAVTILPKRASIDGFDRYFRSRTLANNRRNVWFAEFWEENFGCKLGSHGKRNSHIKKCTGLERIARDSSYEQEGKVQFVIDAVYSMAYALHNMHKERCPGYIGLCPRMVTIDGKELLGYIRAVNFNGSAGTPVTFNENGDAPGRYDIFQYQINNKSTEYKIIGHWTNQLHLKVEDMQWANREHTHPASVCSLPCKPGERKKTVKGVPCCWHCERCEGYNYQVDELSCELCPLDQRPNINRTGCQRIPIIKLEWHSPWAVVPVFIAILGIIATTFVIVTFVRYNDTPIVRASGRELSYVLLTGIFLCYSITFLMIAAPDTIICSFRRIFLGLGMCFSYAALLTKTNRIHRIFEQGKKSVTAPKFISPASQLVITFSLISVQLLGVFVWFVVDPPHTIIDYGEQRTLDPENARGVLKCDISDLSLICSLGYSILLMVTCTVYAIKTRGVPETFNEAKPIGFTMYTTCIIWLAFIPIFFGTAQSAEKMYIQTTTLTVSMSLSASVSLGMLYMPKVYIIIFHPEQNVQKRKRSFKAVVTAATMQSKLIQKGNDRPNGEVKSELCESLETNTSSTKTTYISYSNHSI

SMILES | z-score
COc1ccc(CCNc2oc(COc3ccccc3)nc2C#N)cc1 | -0.509
COc1nc(C)ccc1-c1noc(-c2ccncc2)n1 | 0.588
O=C(Nc1ccn(Cc2c(F)c(F)cc(F)c2F)n1)c1ccc(COc2ccccc2Cl)cc1 | 0.00499
COc1ccc(-c2c3c([nH]c(=S)c2C#N)CCC3)cc1 | 2.17
Cn1c(=O)[nH]c(=O)c2c1nc(NCCCO)n2Cc1ccc(F)cc1 | 0.293
CN(C)C(=O)COC(=O)/C=C/c1ccccc1[N+](=O)[O-] | -0.0224
O=C(Cc1coc2ccc3ccccc3c12)Nc1nccs1 | 0.229
CCNC(=O)C1(c2ccccc2)CCCC1 | 0.12
O=C(CSc1nnc(-c2cnccn2)n1Cc1ccco1)c1ccccc1 | 2.15
CC(C)CC1NC(=S)N(Cc2ccccc2)C1=O (configuration not stated) | -0.2
Cc1ccc(-n2c(N)c(C(=O)N3CCN(C)CC3)sc2=S)cc1 | 0.948
C=C(C)C1Cc2cc3ccc(=O)oc3cc2O1 (configuration not stated) | -0.0745
CN(CC(=O)Nc1nccs1)S(=O)(=O)c1ccc(F)cc1 | -0.142
CC(C)(CO)NCc1ccccc1OCC(=O)Nc1ccccc1 | -0.32
c1ccc(-c2ccn3nnnc3n2)cc1 | -0.244
COc1ccc(Cn2ccc(=O)c(Cc3c(Cl)cccc3Cl)c2C)cc1 | -0.201
COCCNc1nc(SCC(=O)N2CCN(c3ccccc3)CC2)nc2ccccc12 | 0.367
CC(O)C(=O)NCCOCCOCCNC(=O)C(C)O (configuration not stated) | 0.16
O=C(Cn1cc2c(n1)CCCCC2)NCc1ccccn1 | -0.195
O=C(CSc1nc2[nH]ncc2c(=O)n1-c1ccccc1)c1ccc2c(c1)OCCO2 | -0.27
CCCS(=O)(=O)N1CCCC(C(=O)NCCN(CC)CC)C1 (configuration not stated) | -0.0442
CC(=O)Nc1ccc(S(=O)(=O)N2CCN(c3ccc(C)c(Cl)c3)CC2)cc1 | 0.603
Cc1ccc(C(=O)NC2CCCCC2)cc1 | -0.337
CN(C)/C=C(\C#N)C(=O)c1cccnc1Oc1cccc(F)c1 | -0.18

SMILES | z-score
CCOC(=O)c1cnc2ccc(OCC)cc2c1NCc1cccnc1 | -0.269
COc1ccc(CCNC(=O)C2CC(=O)N(c3ccccc3)C2)cc1OC (configuration not stated) | 0.172
CSCC[C@H](NC(=O)NCc1cccs1)C(=O)O | 0.0281
Cc1c(CN(C)C)c2c(n1Cc1ccccc1)C(=O)c1ccc(Br)cc1-2 | 0.566
COC(=O)c1ccc(CSc2ccc3nnc(-c4ccccc4)n3n2)o1 | -2.69
COCCN1C(=O)C(O)=C(C(C)=O)C1c1ccc(OC)c(OC)c1 (configuration not stated) | 0.251
COc1cc(Cl)c(C)cc1NC(=O)CSc1cc(Cl)ccc1Cl | -0.433
COc1ccc(-c2nn(-c3ccccc3)cc2/C=N/NS(=O)(=O)c2ccccc2)cc1 | -0.494
CCc1nc(NCc2ccco2)c2oc3ccccc3c2n1 | -0.48
O=C(CCn1c(SCC(=O)NCc2ccco2)nc2ccccc2c1=O)NCCc1ccccc1 | -0.323
Cc1ccc2[nH]c(=O)c(CN(CCCN(C)C)C(=O)Nc3ccc(Cl)cc3)cc2c1 | -0.611
COc1cc(/C=C(/C#N)c2nc3ccccc3[nH]2)ccc1OCC(=O)Nc1ccccc1C(C)C | 0.123
CCOC(=O)COn1c(=O)c(C)[n+]([O-])c2ccccc21 | 0.0302
FC(F)(F)c1cccc(N2CCN(c3nnnn3-c3ccccc3)CC2)c1 | 0.703
CCCc1nc(SCC(=O)N2CCc3ccccc3C2)c2ccccc2n1 | -0.569
CCCCC(=O)Nc1ccc(C)c(O)c1 | 0.0987
OCCn1c(CSc2nnc(-c3ccco3)n2-c2ccccc2)nc2ccc(Cl)cc21 | -0.775
c1ccc(Oc2nc(N3CCOCC3)nc(N3CCOCC3)n2)cc1 | 0.259
Cc1cc(=O)oc(C)c1C(=O)N1CCc2c([nH]c3ccccc23)C1C(C)C (configuration not stated) | 0.122
Cn1cc(SCC(=O)Nc2nccs2)c2ccccc21 | 1.18
N=P(N1CCOCC1)(N1CCOCC1)C12CC3CC(CC(C3)C1)C2 | 0.173
O=S(=O)(NCCCO)c1ccc2c(c1)Cc1cc(S(=O)(=O)NCCCO)ccc1-2 | -0.0412
Cc1ccc(S(=O)(=O)N2CCN(CC(=O)N/N=C\c3cccnc3)CC2)cc1 | -0.154
Cc1ccc(NC(=O)CSc2nnc(-c3ccc(S(=O)(=O)N4CCOCC4)cc3)n2C)cc1 | -0.033

SMILES | z-score
O=C(CSc1nc(C2CCCCC2)n(-c2ccccc2)n1)NCCN1C(=O)CSC1=O | 0.242
CCc1ccc(/C=C2\SC(=S)N(CCCC(=O)Nc3ccccn3)C2=O)cc1 | -0.092
C=CCNC(=O)C(C(=O)OCC)C1CCCCC1 (configuration not stated) | 0.317
O=C(CN1CCCCCC1=O)OCc1ncc(-c2ccccc2)o1 | 0.469
CC(=O)Nc1nc(SCc2cccc3ccccc23)n[nH]1 | -0.102
CC(OC(=O)c1ccc(Cl)c(S(=O)(=O)N2CCc3ccccc32)c1)C(=O)Nc1ncc(Cl)cc1Cl (configuration not stated) | -0.529
COc1ccc(N2CSC3=C(C#N)C(c4ccc(OC)c(OC)c4)CC(=O)N3C2)c(OC)c1 (configuration not stated) | -0.269
C/C(=N\NC(=S)Nc1ccc(F)cc1)c1ccc2c(c1)OCCO2 | active: 6.87
OCCOc1nnnn1-c1ccccc1 | 0.502
COc1ccc(N2CCN(C3CC(=O)N(Cc4ccc(N5CCCC5=O)cc4)C3=O)CC2)cc1 (configuration not stated) | -0.321
CC(=O)OC(C(=O)NC1CCCCC1)c1cccc(C)c1 (configuration not stated) | -0.192
C(=N\N1CCN(Cc2ccccc2)CC1)/c1cccs1 | -0.298
O=C(O)C1CCCN1C(=O)OCc1ccccc1 (configuration not stated) | -0.414
COc1ccccc1C(=O)NCC(=O)OC(C)C(=O)NC(=O)NC1CCCCC1 (configuration not stated) | -0.434
CN1CCC(=NNC(=O)CSCc2ccccc2)CC1 | -0.494
CC1=C(C(=O)Nc2ccccc2)C(c2cccnc2)n2nc(-c3cccnc3)nc2N1 (configuration not stated) | -0.446
Cc1cc(NC(=O)CSc2cn(C)c3ccccc23)no1 | -0.147
COc1ccc(/C=C2\SC(=O)NC2=S)cc1OC | 2.05
O=[N+]([O-])c1ccccc1/C=N/Nc1nnc(-c2ccccc2)c(-c2ccccc2)n1 | 0.316
Cc1cc(-c2cccc([N+](=O)[O-])c2)nc2ccc3ccccc3c12 | -0.352
CCn1cc(-c2nnnn2-c2ccc(Cl)cc2)c(=O)c2ccccc21 | 0.702
CCC(C)c1ccc(Nc2ncccc2C#N)cc1 (configuration not stated) | -0.15
COC(=O)/C=C/C(=O)Nc1cccnc1 | -0.364
Cc1ccc(NC(=O)CSc2nnc(-c3cccs3)o2)cc1S(=O)(=O)N1CCCCC1 | -0.0809
